Measurements published in the supplement of paper PMC5895741.

B1: MS2 coat protein; the commonest letter at each place (parent)
chain: MASNFTQFVLVDNGGTGDVTVAPSNFANGVAEWISSNSRSQAYKVTCSVRQSSAQNRKYTIKVEVPKVATQTVGGVELPVAAWRSYLNMELTIPIFATNSDCELIVKAMQGLLKDGNPIPSAIAANSGIY

Variants of: B1
Assay: apparent fitness score (VLP assembly selection enrichment vs plasmid library) (log10 ratio); higher = better expression / assembly into well-formed VLPs
Experimental: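 SyMAPS: NNK codon saturation mutagenesis of every codon of the MS2 bacteriophage coat protein (EMPIRIC cloning), expressed overnight in E. coli DH10B at 37 °C. Assembled VLPs were selected by ammonium sulfate precipitation plus FPLC size-exclusion chromatography, and the encapsidated RNA was sequenced. Apparent fitness score = log10 of the mean over 3 biological replicates of (percent abundance in the VLP library / percent abundance in the plasmid library). Variants absent after selection were set to 0.0001, i.e. -4.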
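Note: counts from Illumina MiSeq reads, cDNA of packaged RNA versus plasmid DNA taken before selection, each replicate independent from library construction onward, expression induced with 0.1% arabinose.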

Apparent fitness score (log10): each site, then its substitutions
A2: D -0.514; E -0.812; P 0.0945; S -0.251; V -0.147; T 0.845; G 0.379
F5: R -0.503; D < -4; P -0.657; A -1.33; H -0.0663; Y 0.221; C -0.23; E -0.544; G -0.774; V -0.417; T -0.9; W -1.18; N -0.492; M -1.01; L 0.205; Q 0.0695; S -0.131; I -0.485; K -1.85
L10: W -1.72; D < -4; N -1.5; F -1.15; Y -0.309; A < -4; E -1.28; I < -4; R < -4; H < -4; K -0.515; C < -4; Q < -4; P -0.359; V < -4; T < -4; M -0.243; G -1.18; S -1.69
F8: I < -4; H -0.481; K -0.836; N -0.203; Q -0.921; L -1.07; P -1.75; V -0.383; Y -0.477; S -0.556; G -1.26; W -0.226; T -0.816; C -0.815; A -1.66; D -0.419; E -1.39; R -0.889; M -0.459
N4: T 0.827; D -0.72; Q -0.81; I 0.664; Y -1.15; F < -4; C < -4; M -0.0268; K -0.642; W -1.15; S -1.18; P -1.72; R -0.922; G -0.732; V 0.495; E -1.14; A -1.63; L -0.631; H < -4
S3: D -0.61; C < -4; N -0.786; V -0.188; W -1.33; T 1.14; R 0.509; A 0.439; H 0.428; L < -4; P -0.483; F -0.277; Y 0.866; I -0.434; G 0.319
V11: F < -4; H -1.02; E < -4; K -1.1; I 0.421; N < -4; A -0.883; G -1.39; C < -4; L -2.08; D < -4; M < -4
Q7: F -1.01; M -0.448; N 1.08; H 0.93; K 0.773; Y < -4; P 0.2; D 0.871; W < -4; I -0.401; L -0.309; R 0.619; G -0.22; V -1.39; S 0.58; E -0.577; C -0.483; A 0.862; T 0.835
V9: L 0.441; H < -4; A 0.0863; Y -0.963; C < -4; P -1.07; R -0.0245; Q -0.00238; M 0.449; K 0.0973; W -0.787; F 0.411; I 0.712; N 0.967; E < -4; D < -4; T 0.645; G -1.5; S -0.419
T6: G -0.0157; Y -0.738; K < -4; I 0.802; M -0.786; R -1.33; F -1.09; A 0.557; C 0.143; Q 0.812; V 0.624; N 0.23; H 0.39; D 0.999; L -0.158; S 0.0286; P -1.34; E -1.28; W < -4
